In all, about 33,000 sequences were measured (“E-score (-0.5 to 0.5)”: median about -0.036, highest 2% from about 0.37 on). The list shows a part of the results.
Each sequence was assayed against T1, Yer064c (UniProt P40041) (assay: PBM E-score (8-mer binding enrichment) (E-score (-0.5 to 0.5)); higher = stronger / more preferred TF binding; most listed sequences are background and not binding sites). Conditions: protein concentration: 200 nM; construct: GST-full length.
T1 sequence: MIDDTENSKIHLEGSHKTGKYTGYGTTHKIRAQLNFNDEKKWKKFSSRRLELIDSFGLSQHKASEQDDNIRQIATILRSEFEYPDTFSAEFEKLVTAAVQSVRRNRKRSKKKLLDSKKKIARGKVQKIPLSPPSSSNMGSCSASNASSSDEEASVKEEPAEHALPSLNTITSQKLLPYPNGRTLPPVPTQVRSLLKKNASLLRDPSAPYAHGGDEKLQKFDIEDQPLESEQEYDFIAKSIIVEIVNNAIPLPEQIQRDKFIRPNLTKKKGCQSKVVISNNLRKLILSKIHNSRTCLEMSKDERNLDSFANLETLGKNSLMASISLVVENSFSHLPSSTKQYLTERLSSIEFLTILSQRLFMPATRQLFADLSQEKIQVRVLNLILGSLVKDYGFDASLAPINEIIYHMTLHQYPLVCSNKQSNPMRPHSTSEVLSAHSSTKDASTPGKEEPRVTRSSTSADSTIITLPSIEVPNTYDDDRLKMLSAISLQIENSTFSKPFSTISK
Summary of the method: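 PURExpress in vitro transcription/translation supplied GST-tagged yeast transcription factors, either full-length or DNA-binding domain. Applied at about 100-200 nM to universal all-10-mer Agilent arrays double-stranded by primer extension, the bound protein was detected with fluorescent anti-GST. E-scores, modified Wilcoxon-Mann-Whitney statistics, were given by the Universal PBM Analysis Suite to ungapped eight-base words pooled with their reverse complements after masliner normalisation.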

Sequence | PBM E-score
AACGGACG | 0.0149
CTTTGTGC | -0.111
TCCACTCA | 0.0393
AGTTATGA | 0.167
ATCGAGTA | 0.138
CCGCATTA | -0.268
ATACCCTC | -0.0958
AAAATAAA | 0.082
GTTGAGGA | -0.048
GTGTGCGA | 0.0296
CGGTCGAC | -0.0378
CGGTTGTA | -0.173
TGATGCCA | -0.152
ATTCAAAA | 0.2
CGGCGAAC | -0.11
ACGAACTA | 0.108
CTCTTCAA | 0.0517
GATTTTCC | -0.07
AAACTGAC | 0.0698
ACTAATAG | 0.211
TCGGTCCA | -0.287
GTACTGTA | -0.145

Sequence | PBM E-score
ATGGCGAC | 0.0194
AGCGAAGA | 0.0987
AAGCTCCG | -0.23
AAACACAG | 0.123
TCGTCAAA | 0.0778
CCCGTTAC | -0.106
CTACGGTA | 0.0309
CGGGGTGC | -0.272
CTGCTGTA | -0.112
GAGATGTA | 0.0684
GAAGAAGA | 0.0213
CCTGCTTA | -0.023
AAACTGCT | -0.232
AACTGCCT | 0.135
CTTGTTAA | 0.157
ATCCCCTC | -0.188
CGTACGAA | -0.0481
AAACTGTC | -0.23
AACTGGCG | -0.0703
AAGGTAAT | 0.227
CTACCTAG | -0.16
CGAGGGAC | -0.309

Sequence | PBM E-score
GATGTCGA | -0.00432
CTAAGCCC | -0.0644
TAGGAGCA | -0.00171
AGTTTGCG | -0.165
AATATTTC | 0.0886
CGATCGTA | 0.05
CTGCCCTA | -0.0272
AAGAATGG | -0.119
CCCGGTTA | -0.0703
ACCCTGTG | -0.0328
ATACTCCA | -0.0217
GCAGCCAC | 0.176
CGAACTCA | 0.225
CAATCTCA | 0.0597
AAACCAGT | 0.0665
CGGCCGCA | -0.109
AAACGCGT | -0.0178
GCGGTTCC | -0.174
AACTCCAT | 0.0309
GATTCTAC | 0.169
GTGATTAA | 0.452
AAAAGTCG | 0.0277

Sequence | PBM E-score
ACGGAATC | 0.229
GCACGACA | -0.218
TCGAGAGA | -0.0213
AATTGACG | -0.178
CGGATACA | -0.0362
CCTTAACC | 0.0403
CCAGAGCA | -0.0532
CATGGCCA | -0.107
ACGATTAC | 0.185
GATTAGGC | 0.25
CAGTACCA | 0.0191
AGATCCTG | -0.0248
GTTACGCA | -0.0966
CCGCATCA | -0.101
CAGTGGAA | -0.00531
ATGACACA | 0.165
AATTGATA | 0.1
CTTCCTCA | -0.0401
CCCCTCTC | -0.264
ATGATCGC | -0.0456

— the supplement of paper PMC3334620
